Paper PMC6919601, “Identification of Plasmodium dipeptidyl aminopeptidase allosteric inhibitors by high throughput screening” (PLoS ONE, 2019)
Among all 110,000 compounds or so, about 230 (0.21%) showed an effect of 50% or more. The list shows a part of the results.

molecular target: DPAP1 (Plasmodium falciparum, UniProt Q8IIJ9); assay: primary screen, percent inhibition; read by cleavage of a fluorogenic dipeptide substrate; higher = more effect of the substance; set-up: species or system P. falciparum D10 trophozoite lysates; single well
Sequence (Q8IIJ9 whole entry, looked up): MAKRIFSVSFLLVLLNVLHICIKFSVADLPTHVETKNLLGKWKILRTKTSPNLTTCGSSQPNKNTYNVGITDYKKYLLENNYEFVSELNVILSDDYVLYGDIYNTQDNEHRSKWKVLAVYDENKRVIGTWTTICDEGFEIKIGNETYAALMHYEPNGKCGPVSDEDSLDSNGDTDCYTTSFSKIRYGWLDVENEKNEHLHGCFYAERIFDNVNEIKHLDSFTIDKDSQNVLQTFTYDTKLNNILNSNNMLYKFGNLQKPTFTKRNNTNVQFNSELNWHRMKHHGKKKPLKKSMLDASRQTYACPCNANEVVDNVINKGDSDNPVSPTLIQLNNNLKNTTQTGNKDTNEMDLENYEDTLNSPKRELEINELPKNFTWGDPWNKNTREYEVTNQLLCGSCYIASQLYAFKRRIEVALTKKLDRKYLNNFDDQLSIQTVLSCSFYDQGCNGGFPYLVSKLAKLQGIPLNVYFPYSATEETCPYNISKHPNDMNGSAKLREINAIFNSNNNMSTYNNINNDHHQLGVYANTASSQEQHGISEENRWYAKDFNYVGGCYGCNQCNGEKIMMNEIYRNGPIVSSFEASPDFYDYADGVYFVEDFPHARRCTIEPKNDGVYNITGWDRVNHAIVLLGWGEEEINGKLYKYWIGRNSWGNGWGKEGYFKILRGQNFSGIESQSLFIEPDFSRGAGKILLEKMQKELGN
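Also: 30 min substrate incubation versus DMSO and 10 µM JCP410 controls.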

SMILES | % Inhibition @ 10 uM
Cc1cc(NCCCN2CCCC2=O)n2c(nc3ccccc32)c1C#N | -5.96%
CCOc1ccc(CNCCSc2nnnn2-c2ccccc2)cc1OC | 0.596%
C[C@@H](C[C@H](NC(=O)c1ccc(-c2ccccc2Cl)nc1)C(=O)NC1(C#N)CCS(=O)(=O)CC1)c1ccccc1 | -4.82%
O=C(NCc1ccc2c(c1)OCO2)c1c(F)cccc1F | 5.79%
O=c1oc(-c2ccccc2[N+](=O)[O-])nc2ccccc12 | -6.09%
CCO/C(O)=C1\SCC(C(=O)NCCCN2CC(C)CC(C)C2)N=C1C (centres unmarked) | 1.72%
CCOc1ccccc1C1C2=C(O)CCCC2=NC(C)=C1C(=O)OCCSCC (centres unmarked) | -5.28%
CCN1CCN(CC(O)COc2ccc(C(C)C)c(C)c2)CC1 (centres unmarked) | -3.98%
Cc1cc(OCC(CN(Cc2ccccc2)C(C)(C)C)OC(=O)c2ccco2)ccc1[N+](=O)[O-] (centres unmarked) | 1.7%
CCC(C(=O)Nc1cc(Cl)ccc1OC)c1ccccc1 (centres unmarked) | 4.03%
Cc1c(C(=O)NCCCN2CCOCC2)sc2ncnc(N3CCN(c4ccccn4)CC3)c12 | -3.21%
CCCNC(=O)c1cc(-c2ccco2)nc2ccccc12 | 6.1%
Cc1cccc(NC(=O)c2cc3ccccc3oc2=O)c1 | 3.34%
CCc1nnc(NC(=O)Cn2nc(Cc3ccncc3)c3ccccc3c2=O)s1 | -2.92%
CC(C(=O)NCCC1=CCCCC1)n1c2ccccc2c2cnn(C)c(=O)c21 (centres unmarked) | 5.88%
C=CCNC(=O)CCCc1nc(-c2ccc(C)cc2)no1 | -2.92%
NS(=O)(=O)c1ccc(CCNS(=O)(=O)c2ccc3ncc(C(=O)O)c(O)c3c2)cc1 | -1.28%
Cc1n[nH]c(SCC(=O)c2ccc(O)cc2O)n1 | 4.01%
COCCO/C(O)=C1/C(C)=NC2=C(C(=O)CCC2)C1c1ccc(Cl)cc1 (centres unmarked) | -1.03%
Oc1ncccn1 | -2.88%
CCCn1nc(NS(=O)(=O)c2ccc(C)cc2)c2cc3cc(C)ccc3nc21 | 4.18%
COc1ccccc1/C=C/c1nc(C#N)c(NCCc2ccc(OC)c(OC)c2)o1 | -10.3%
COc1ccc(C2SCC(=O)N2c2nc3ccccc3s2)cc1 (centres unmarked) | -3.64%
COc1cccc(C(=O)Nc2ccc3ccccc3c2)c1OC | 1.35%
COc1cccc(C(=O)Nc2cccc(C)c2C)c1 | 1.15%

SMILES | % Inhibition @ 10 uM
CCCOc1ccc(N2C(=O)CC(SCC(=O)Nc3ccc(Cl)cc3)C2=O)cc1 (centres unmarked) | 1.78%
COC(=O)c1cc(S(=O)(=O)N2CCN(Cc3ccc4c(c3)OCO4)CC2)c[nH]1 | 3.45%
CN(CCc1ccccn1)Cc1ccc(F)c(F)c1 | -4.15%
Cc1ccc(C2=NS(=O)(=O)N(C)C(C(=O)Nc3sc4c(c3C(N)=O)CCCC4)=C2)cc1 | 9.86%
COC(=O)c1cc(S(=O)(=O)NCC2CCN(Cc3cc(C)ccc3C)CC2)cn1C | -3.39%
CCc1c(OC)ccc(/C=N/NC(=O)CSCc2ccc([N+](=O)[O-])cc2)c1OC | 1.83%
N#Cc1cc2c(N)c(C(=O)c3ccccc3)sc2nc1N | 14.6%
COc1ccccc1Sc1ccccc1CC(C)N (centres unmarked) | 1.19%
CCc1nnc2sc(-c3ccc(F)cc3)nn12 | -4.67%
COc1ccc(/N=C2/CCCN2C(=O)c2ccc(F)cc2)cc1 | -2.77%
Cc1ccc2c(c1)c1c3n2CCN(CC(O)COc2ccccc2C)C3CCC1 (centres unmarked) | -1.75%
O=C(O)c1cccc(NC(=O)c2ccc3c(c2)C(=O)N(Cc2ccco2)C3=O)c1 | 14.5%
C1CCCC(N2CCC(N3CCCCC3)CC2)CC1 | -3.57%
CC(C)Cn1c(=O)c2c(nc3n2CCS3)n(C)c1=O | 2.41%
O=C(/C=C/C1=NN(c2ccccc2)C(c2ccccc2)C1)c1ccc(-c2ccccc2)cc1 (centres unmarked) | -1.54%
COc1cc(C(=O)/N=c2\sc(C)c(-c3ccccc3)n2C)cc(OC)c1OC | -2.32%
CCOc1ccc(NS(=O)(=O)c2ccc(NC(=O)C(F)(F)F)cc2)cc1 | -1.61%
Cc1ccc(CN(C(=O)C(C)Oc2ccc(Cl)c(C)c2)C2CCS(=O)(=O)C2)o1 (centres unmarked) | -1.11%
CN(C)c1ccc(/C=C/CN2CCC(O)CC2)cc1 | -3.42%
O=C(NCc1ccc2c(c1)OCO2)c1sc2ccccc2c1Cl | -7.3%
CC(CNC(=O)C1CCCN(S(=O)(=O)N2CCOCC2)C1)c1ccccc1 (centres unmarked) | 2.81%
COc1cccc2sc(N(CCCN(C)C)C(=O)COc3ccccc3)nc12 | 5.38%
O=C(CCCN1C(=O)c2ccccc2Sc2ncccc21)NCc1ccccn1 | -6.65%
COc1cc(CN2C[C@@H]3C[C@H](C2)c2cccc(=O)n2C3)cc2c1OCO2 | -5.48%
CCC(C)NC(=O)C1CC(=O)N(c2ccc(C(C)C)cc2)C1 (centres unmarked) | -7.58%
